The other results are listed elsewhere or left out.
Experiments:
Assay in all cases: glycan array binding signal (z-score within array); higher = stronger binding
Conditions in all cases: glycan notation: IUPAC condensed, linker removed
[1] = target: Gal(b1-4)GlcNAc(b1-3)Gal(b1-4)GlcNAc(b1-3)Gal(b1-4)GlcNAc(b1-3)Gal(b1-4)GlcNAc(b1-3)Gal(b1-4)GlcNAc(b1-2)Man(a1-3)[Gal(b1-4)GlcNAc(b1-3)Gal(b1-4)GlcNAc(b1-3)Gal(b1-4)GlcNAc(b1-3)Gal(b1-4)GlcNAc(b1-3)Gal(b1-4)GlcNAc(b1-2)Man(a1-6)]Man(b1-4)GlcNAc(b1-4)[Fuc(a1-6)]GlcNAc
Outline: (§1)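 Glycan array data were curated from 3228 arrays in the Consortium for Functional Glycomics database and kept only where the protein sequence was available. Glycan names were converted to IUPAC-condensed notation, and columns mapping to the same glycan were averaged. The binding signal is a within-array Z-score, averaged across arrays of the same protein sequence at different concentrations or buffers and across linkers. Negative Z-scores can be read as non-binding.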

[2] = target: Gal(b1-4)GlcNAc(b1-3)Gal(b1-4)GlcNAc(b1-3)Gal(b1-4)GlcNAc(b1-3)Gal(b1-4)GlcNAc(b1-3)Gal(b1-4)GlcNAc(b1-2)[Gal(b1-4)GlcNAc(b1-3)Gal(b1-4)GlcNAc(b1-3)Gal(b1-4)GlcNAc(b1-3)Gal(b1-4)GlcNAc(b1-3)Gal(b1-4)GlcNAc(b1-6)]Man(a1-6)[Gal(b1-4)GlcNAc(b1-3)Gal(b1-4)GlcNAc(b1-3)Gal(b1-4)GlcNAc(b1-3)Gal(b1-4)GlcNAc(b1-3)Gal(b1-4)GlcNAc(b1-2)Man(a1-3)]Man(b1-4)GlcNAc(b1-4)[Fuc(a1-6)]GlcNAc
Outline: as §1

[3] = target: Gal(b1-4)GlcNAc(b1-3)Gal(b1-4)GlcNAc(b1-3)Gal(b1-4)GlcNAc(b1-3)Gal(b1-4)GlcNAc(b1-3)Gal(b1-4)GlcNAc(b1-3)Gal(b1-4)GlcNAc(b1-2)Man(a1-3)[Gal(b1-4)GlcNAc(b1-3)Gal(b1-4)GlcNAc(b1-3)Gal(b1-4)GlcNAc(b1-3)Gal(b1-4)GlcNAc(b1-3)Gal(b1-4)GlcNAc(b1-3)Gal(b1-4)GlcNAc(b1-2)Man(a1-6)]Man(b1-4)GlcNAc(b1-4)GlcNAc
Outline: as §1

[4] = target: Gal(b1-4)GlcNAc(b1-3)Gal(b1-4)GlcNAc(b1-3)GalNAc
Outline: as §1

[5] = target: Gal(b1-4)GlcNAc(b1-3)Gal(b1-4)GlcNAc(b1-3)[Gal(b1-4)GlcNAc(b1-3)Gal(b1-4)GlcNAc(b1-6)]GalNAc
Outline: as §1

[6] = target: Gal(b1-4)GlcNAc(b1-3)Gal(b1-4)GlcNAc(b1-6)[Gal(b1-3)]GalNAc
Outline: as §1

[7] = target: Gal(b1-4)GlcNAc(b1-3)Gal(b1-4)[Fuc(a1-3)]GlcNAc(b1-3)Gal(b1-4)[Fuc(a1-3)]GlcNAc
Outline: as §1

[8] = target: Gal(b1-4)GlcNAc(b1-3)GalNAc
Outline: as §1

[9] = target: Gal(b1-4)GlcNAc(b1-3)[Fuc(a1-3)GlcNAc(b1-6)]Gal(b1-4)Glc
Outline: as §1

[10] = target: Gal(b1-4)GlcNAc(b1-3)[Gal(b1-4)GlcNAc(b1-6)]Gal(b1-4)GlcNAc
Outline: as §1

[11] = target: Gal(b1-4)GlcNAc(b1-3)[Gal(b1-4)GlcNAc(b1-6)]GalNAc
Outline: as §1

[12] = target: Gal(b1-4)GlcNAc(b1-3)[GlcNAc(b1-6)]Gal(b1-4)GlcNAc
Outline: as §1

[13] = target: Gal(b1-4)GlcNAc(b1-6)Gal(b1-4)GlcNAc
Outline: as §1

[14] = target: Gal(b1-4)GlcNAc(b1-6)Gal(b1-4)GlcNAc(b1-6)GalNAc
Outline: as §1

[15] = target: Gal(b1-4)GlcNAc(b1-6)GalNAc
Outline: as §1

[16] = target: Gal(b1-4)GlcNAc(b1-6)[Gal(b1-3)]GalNAc
Outline: as §1

[17] = target: Gal(b1-4)GlcNAc(b1-6)[Gal(b1-4)GlcNAc(b1-3)]GalNAc
Outline: as §1

Gal(b1-4)GlcNAc6P = target: Gal(b1-4)GlcNAc6P
Outline: as §1

Gal(b1-6)Gal = target: Gal(b1-6)Gal
Outline: as §1

Gal3S(b1-3)GalNAc = target: Gal3S(b1-3)GalNAc
Outline: as §1

Gal3S(b1-3)GlcNAc = target: Gal3S(b1-3)GlcNAc
Outline: as §1

[18] = target: Gal3S(b1-3)[Fuc(a1-4)]GlcNAc
Outline: as §1

Gal3S(b1-4)Glc = target: Gal3S(b1-4)Glc
Outline: as §1

Gal3S(b1-4)Glc6S = target: Gal3S(b1-4)Glc6S
Outline: as §1

Gal3S(b1-4)GlcNAc = target: Gal3S(b1-4)GlcNAc
Outline: as §1

Gal3S(b1-4)GlcNAc6S = target: Gal3S(b1-4)GlcNAc6S
Outline: as §1

[19] = target: Gal3S(b1-4)[Fuc(a1-3)]Glc6S
Outline: as §1

[20] = target: Gal3S(b1-4)[Fuc(a1-3)]GlcNAc
Outline: as §1

[21] = target: Gal3S(b1-4)[Fuc(a1-3)]GlcNAc6S
Outline: as §1

Gal3S4S(b1-4)GlcNAc = target: Gal3S4S(b1-4)GlcNAc
Outline: as §1

Gal3S6S(b1-4)GlcNAc = target: Gal3S6S(b1-4)GlcNAc
Outline: as §1

Gal3S6S(b1-4)GlcNAc6S = target: Gal3S6S(b1-4)GlcNAc6S
Outline: as §1

Gal4S(b1-4)GlcNAc = target: Gal4S(b1-4)GlcNAc
Outline: as §1

Gal4S6S(b1-4)GlcNAc = target: Gal4S6S(b1-4)GlcNAc
Outline: as §1

Gal6P(b1-4)GlcNAc = target: Gal6P(b1-4)GlcNAc
Outline: as §1

Gal6S(b1-3)GlcNAc = target: Gal6S(b1-3)GlcNAc
Outline: as §1

Gal6S(b1-3)GlcNAc6S = target: Gal6S(b1-3)GlcNAc6S
Outline: as §1

Gal6S(b1-4)Glc = target: Gal6S(b1-4)Glc
Outline: as §1

Gal6S(b1-4)Glc6S = target: Gal6S(b1-4)Glc6S
Outline: as §1

Gal6S(b1-4)GlcNAc = target: Gal6S(b1-4)GlcNAc
Outline: as §1

Gal6S(b1-4)GlcNAc6S = target: Gal6S(b1-4)GlcNAc6S
Outline: as §1

GalNAc(a1-3)Gal = target: GalNAc(a1-3)Gal
Outline: as §1

GalNAc(a1-3)GalNAc = target: GalNAc(a1-3)GalNAc
Outline: as §1

[22] = target: GalNAc(a1-3)GalNAc(a1-3)Gal(a1-4)Gal(b1-4)GlcNAc
Outline: as §1

[23] = target: GalNAc(a1-3)GalNAc(b1-3)Gal(a1-4)Gal(b1-4)Glc
Outline: as §1

B1: NPA (Narcissus pseudonarcissus), C0HM45 (protein)
chain: DNILYSGETLSPGEFLNNGRYVFIMQEDCNLVLYDVDKPIWATNTGGLDRRCHLSMQSDGNLVVYSPRNNPIWASNTGGENGNYVCVLQKDRNVVIYGTARWATGTNIH
In the case of B1, the “glycan array binding signal (z-score)” value [1] is reported as -0.108, the “glycan array binding signal (z-score)” value [2] is reported as 0.011 and the “glycan array binding signal (z-score)” value [3] is reported as -0.082. For the same binder, the “glycan array binding signal (z-score)” value [4] was -0.052, the “glycan array binding signal (z-score)” value [5] was 0.095 and the “glycan array binding signal (z-score)” value [6] was 0.004. For the same binder, the “glycan array binding signal (z-score)” value [7] was -0.144, the “glycan array binding signal (z-score)” value [8] was -0.144 and the “glycan array binding signal (z-score)” value [9] was -0.132. For the same binder, the “glycan array binding signal (z-score)” value [10] was -0.145, the “glycan array binding signal (z-score)” value [11] was -0.201 and the “glycan array binding signal (z-score)” value [12] was -0.143. For the same binder, the “glycan array binding signal (z-score)” value [13] was -0.153, the “glycan array binding signal (z-score)” value [14] was -0.202 and the “glycan array binding signal (z-score)” value [15] was -0.139. The “glycan array binding signal (z-score)” value [16] was -0.151, the “glycan array binding signal (z-score)” value [17] was -0.141 and the “glycan array binding signal (z-score)” value (Gal(b1-4)GlcNAc6P) was -0.143. For the same binder, the “glycan array binding signal (z-score)” value (Gal(b1-6)Gal) was -0.127, the “glycan array binding signal (z-score)” value (Gal3S(b1-3)GalNAc) was -0.144 and the “glycan array binding signal (z-score)” value (Gal3S(b1-3)GlcNAc) was -0.153. The “glycan array binding signal (z-score)” value [18] was -0.145, the “glycan array binding signal (z-score)” value (Gal3S(b1-4)Glc) was -0.146 and the “glycan array binding signal (z-score)” value (Gal3S(b1-4)Glc6S) was -0.149. For the same binder, the “glycan array binding signal (z-score)” value (Gal3S(b1-4)GlcNAc) was -0.145, the “glycan array binding signal (z-score)” value (Gal3S(b1-4)GlcNAc6S) was -0.205 and the “glycan array binding signal (z-score)” value [19] was -0.125. The “glycan array binding signal (z-score)” value [20] was -0.147, the “glycan array binding signal (z-score)” value [21] was -0.133 and the “glycan array binding signal (z-score)” value (Gal3S4S(b1-4)GlcNAc) was -0.143. The “glycan array binding signal (z-score)” value (Gal3S6S(b1-4)GlcNAc) was -0.153, the “glycan array binding signal (z-score)” value (Gal3S6S(b1-4)GlcNAc6S) was -0.154 and the “glycan array binding signal (z-score)” value (Gal4S(b1-4)GlcNAc) was -0.172. The “glycan array binding signal (z-score)” value (Gal4S6S(b1-4)GlcNAc) was -0.144, the “glycan array binding signal (z-score)” value (Gal6P(b1-4)GlcNAc) was -0.181 and the “glycan array binding signal (z-score)” value (Gal6S(b1-3)GlcNAc) was -0.154. For the same binder, the “glycan array binding signal (z-score)” value (Gal6S(b1-3)GlcNAc6S) was -0.148, the “glycan array binding signal (z-score)” value (Gal6S(b1-4)Glc) was -0.154 and the “glycan array binding signal (z-score)” value (Gal6S(b1-4)Glc6S) was -0.137. The “glycan array binding signal (z-score)” value (Gal6S(b1-4)GlcNAc) was -0.152, the “glycan array binding signal (z-score)” value (Gal6S(b1-4)GlcNAc6S) was -0.154 and the “glycan array binding signal (z-score)” value (GalNAc(a1-3)Gal) was -0.152. For the same binder, the “glycan array binding signal (z-score)” value (GalNAc(a1-3)GalNAc) was -0.158, the “glycan array binding signal (z-score)” value [22] was -0.148 and the “glycan array binding signal (z-score)” value [23] was -0.143.
